The supplement of paper PMC4604168 (melanoma cell lines)
The other results are listed elsewhere or left out. Single values are uncertain, as repeats are few or missing.
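Also: cell number obtained by counting DAPI-stained nuclei in high-throughput microscope images with image analysis software, screen run in 1,536-well plates.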

Each compound was assayed on C32 (assay: cell count relative to DMSO control; melanoma cells; higher = more viable cells). Details: library dose: low library concentration; 72 h.
With `CN(c1ncccc1CNc1nc(Nc2ccc3c(c2)CC(=O)N3)ncc1C(F)(F)F)S(C)(=O)=O` + O=S(=O)(c1ccccc1)N(CC(F)(F)F)c1ccc(C(O)(C(F)(F)F)C(F)(F)F)cc1 [T0901317] (first compound 0.08 µM, partner dose 1.4 µM) the cell count was 58.7%. `CCCS(=O)(=O)Nc1ccc(F)c(C(=O)c2c[nH]c3ncc(Cl)cc23)c1F` + O=C1NC(=O)/C(=C/c2ccc(-c3ccc(F)cc3O)o2)S1 [AS252424] (first compound 0.08 µM, partner dose 1 µM) gave a cell count of 74.1%. With `NC1(c2ccc(-c3nc4ccn5c(=O)[nH]nc5c4cc3-c3ccccc3)cc2)CCC1` + COc1cc2ncnc(Nc3ccc(Oc4ccccc4)cc3)c2cc1OC [SrcI1] (first compound 0.4 µM, partner dose 2 µM) the cell count was 102%. `C=C(c1ccc(C(=O)O)cc1)c1cc2c(cc1C)C(C)(C)CCC2(C)C` [Bexarotene] + COc1cc2ncnc(Nc3ccc(Oc4ccccc4)cc3)c2cc1OC [SrcI1] (first compound 2 µM, partner dose 2 µM) showed a cell count of 103%. `C=C(c1ccc(C(=O)O)cc1)c1cc2c(cc1C)C(C)(C)CCC2(C)C` [Bexarotene] + O=S(=O)(c1ccccc1)N(CC(F)(F)F)c1ccc(C(O)(C(F)(F)F)C(F)(F)F)cc1 [T0901317] (first compound 2 µM, partner dose 1.4 µM) was tested, and the cell count was 97.4%. `C=C(c1ccc(C(=O)O)cc1)c1cc2c(cc1C)C(C)(C)CCC2(C)C` [Bexarotene] + Oc1cc(-c2nc(-c3ccccc3)[nH]c2-c2ccncc2)ccc1Cl [L779450] (first compound 2 µM, partner dose 0.2 µM) showed a cell count of 90.2%.
